Data from patent publication US20250304706A1 (Astellas, published 2025).

Target: T1, CD3εδ complex protein (human; alpaca, UniProt P07766 23-126; P04234 22-105)
T1 construct: they are not part of the secreted protein; also called human CD3; CD386 complex protein
Test: ELISA, CD3 complex immobilized

Chain of UniProt P07766 (P07766 23-126 limits assumed, stated change not applied, form in doubt, chain 1 of 2): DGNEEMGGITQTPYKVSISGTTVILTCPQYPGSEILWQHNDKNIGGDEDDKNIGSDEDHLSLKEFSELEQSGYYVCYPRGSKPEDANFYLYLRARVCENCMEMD
Chain of UniProt P07766 (P04234 22-105 limits assumed, stated change not applied, form in doubt, chain 2 of 2, further chain): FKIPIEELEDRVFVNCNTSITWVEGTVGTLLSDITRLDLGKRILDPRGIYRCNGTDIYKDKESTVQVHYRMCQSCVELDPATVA

| Binder | EC50 [µg/mL] |
| --- | --- |
| BTE-0045 (bispecific antibody) chain 1: QVQLVESGGGVVQPGGSLRLSCAASGFTFSSYGMHWVRQAPGKGLEWVAVIWYDGRNKYYADSVKGRFTISRDNSKNTLYLQMNSLRAEDTAVYYCTRDHSGSGSYYIDYWGQGTLVTVSSASTKGPSVFPLAPSSKSTSGGTAALGCLVKDYFPEPVTVSWNSGALTSGVHTFPAVLQSSGLYSLSSVVTVPSSSLGTQTYICNVNHKPSNTKVDKKVEPKSCDKTHTCPPCPAPEAAGGPSVFLFPPKPKDTLMISRTPEVTCVVVDVSHEDPEVKFNWYVDGVEVHNAKTKPREEQYGSTYRVVSVLTVLHQDWLNGKEYKCKVSNKALPAPIEKTISKAKGQPREPQVYTLPPSRDELTKNQVSLSCAVKGFYPSDIAVEWESNGQPENNYKTTPPVLDSDGSFFLVSKLTVDKSRWQQGNVFSCSVMHEALHNHYTQKSLSLSPGK chain 2: EIAMTQSPATLSVSPGERATLSCRASQSVSSNLAWYQQKPGQAPRLLIYGASTRATGLPARFSGSGSGTEFTLTISSLQSEDFAVYYCQQYNNFWTFGQGTKVEIKRTVAAPSVFIFPPSDEQLKSGTASVVCLLNNFYPREAKVQWKVDNALQSGNSQESVTEQDSKDSTYSLSSTLTLSKADYEKHKVYACEVTHQGLSSPVTKSFNRGEC chain 3: EVQLVESGGGLIQPGGSLRLSCAASGFTFNTYAMNWVRQAPGKGLEWVARIRSKYNNYATYYADSVKDRFTISRDDSKSTLYLQMNNLRAEDTAVYYCVRHGNFGNTYVSWFAYWGQGTLVTVSSGKPGSGKPGSGKPGSGKPGSQAVVTQEPSLTVSPGGTVTLTCRSSTGAVTTSNYANWVQQKPGQAPRGLIGGTNKRAPGTPARFSGSLLGDKAALTLSGAQPEDEAEYYCALWYSNLWVFGGGTKVTVL[human IgG1 Fc with C220S L234A L235A N297G T366W (EU numbers) cut from this listing] | 0.00825 |
| BTE-0047 (bispecific antibody) chain 1: QVQLVESGGGVVQPGGSLRLSCAASGFTFSSYGMHWVRQAPGKGLEWVAVIWYDGRNKYYADSVKGRFTISRDNSKNTLYLQMNSLRAEDTAVYYCTRDHSGSGSYYIDYWGQGTLVTVSSASTKGPSVFPLAPSSKSTSGGTAALGCLVKDYFPEPVTVSWNSGALTSGVHTFPAVLQSSGLYSLSSVVTVPSSSLGTQTYICNVNHKPSNTKVDKKVEPKSCDKTHTCPPCPAPEAAGGPSVFLFPPKPKDTLMISRTPEVTCVVVDVSHEDPEVKFNWYVDGVEVHNAKTKPREEQYGSTYRVVSVLTVLHQDWLNGKEYKCKVSNKALPAPIEKTISKAKGQPREPQVYTLPPSRDELTKNQVSLSCAVKGFYPSDIAVEWESNGQPENNYKTTPPVLDSDGSFFLVSKLTVDKSRWQQGNVFSCSVMHEALHNHYTQKSLSLSPGK chain 2: EIAMTQSPATLSVSPGERATLSCRASQSVSSNLAWYQQKPGQAPRLLIYGASTRATGLPARFSGSGSGTEFTLTISSLQSEDFAVYYCQQYNNFWTFGQGTKVEIKRTVAAPSVFIFPPSDEQLKSGTASVVCLLNNFYPREAKVQWKVDNALQSGNSQESVTEQDSKDSTYSLSSTLTLSKADYEKHKVYACEVTHQGLSSPVTKSFNRGEC chain 3: EVQLVESGGGLIQPGGSLRLSCAASGFTFNTYAMNWVRQAPGKGLEWVARIRSKYNNYATYYADSVKDRFTISRDDSKSTLYLQMNNLRAEDTAVYYCVRHGNFGNYYVSWFAYWGQGTLVTVSSGKPGSGKPGSGKPGSGKPGSQAVVTQEPSLTVSPGGTVTLTCRSSTGAVTTSNYANWVQQKPGQAPRGLIGGTNKRAPGTPARFSGSLLGDKAALTLSGAQPEDEAEYYCALWYSNLWVFGGGTKVTVL[human IgG1 Fc with C220S L234A L235A N297G T366W (EU numbers) cut from this listing] | 0.135 |
| BTE-0046 (bispecific antibody) chain 1: QVQLVESGGGVVQPGGSLRLSCAASGFTFSSYGMHWVRQAPGKGLEWVAVIWYDGRNKYYADSVKGRFTISRDNSKNTLYLQMNSLRAEDTAVYYCTRDHSGSGSYYIDYWGQGTLVTVSSASTKGPSVFPLAPSSKSTSGGTAALGCLVKDYFPEPVTVSWNSGALTSGVHTFPAVLQSSGLYSLSSVVTVPSSSLGTQTYICNVNHKPSNTKVDKKVEPKSCDKTHTCPPCPAPEAAGGPSVFLFPPKPKDTLMISRTPEVTCVVVDVSHEDPEVKFNWYVDGVEVHNAKTKPREEQYGSTYRVVSVLTVLHQDWLNGKEYKCKVSNKALPAPIEKTISKAKGQPREPQVYTLPPSRDELTKNQVSLSCAVKGFYPSDIAVEWESNGQPENNYKTTPPVLDSDGSFFLVSKLTVDKSRWQQGNVFSCSVMHEALHNHYTQKSLSLSPGK chain 2: EIAMTQSPATLSVSPGERATLSCRASQSVSSNLAWYQQKPGQAPRLLIYGASTRATGLPARFSGSGSGTEFTLTISSLQSEDFAVYYCQQYNNFWTFGQGTKVEIKRTVAAPSVFIFPPSDEQLKSGTASVVCLLNNFYPREAKVQWKVDNALQSGNSQESVTEQDSKDSTYSLSSTLTLSKADYEKHKVYACEVTHQGLSSPVTKSFNRGEC chain 3: EVQLVESGGGLIQPGGSLRLSCAASGFTFNTYAMNWVRQAPGKGLEWVARIRSKYNNYATYYADSVKDRFTISRDDSKSTLYLQMNNLRAEDTAVYYCVRHGNFGNVYVSWFAYWGQGTLVTVSSGKPGSGKPGSGKPGSGKPGSQAVVTQEPSLTVSPGGTVTLTCRSSTGAVTTSNYANWVQQKPGQAPRGLIGGTNKRAPGTPARFSGSLLGDKAALTLSGAQPEDEAEYYCALWYSNLWVFGGGTKVTVL[human IgG1 Fc with C220S L234A L235A N297G T366W (EU numbers) cut from this listing] | 0.32 |
| BTE-0049 (bispecific antibody) chain 1: QVQLVESGGGVVQPGGSLRLSCAASGFTFSSYGMHWVRQAPGKGLEWVAVIWYDGRNKYYADSVKGRFTISRDNSKNTLYLQMNSLRAEDTAVYYCTRDHSGSGSYYIDYWGQGTLVTVSSASTKGPSVFPLAPSSKSTSGGTAALGCLVKDYFPEPVTVSWNSGALTSGVHTFPAVLQSSGLYSLSSVVTVPSSSLGTQTYICNVNHKPSNTKVDKKVEPKSCDKTHTCPPCPAPEAAGGPSVFLFPPKPKDTLMISRTPEVTCVVVDVSHEDPEVKFNWYVDGVEVHNAKTKPREEQYGSTYRVVSVLTVLHQDWLNGKEYKCKVSNKALPAPIEKTISKAKGQPREPQVYTLPPSRDELTKNQVSLSCAVKGFYPSDIAVEWESNGQPENNYKTTPPVLDSDGSFFLVSKLTVDKSRWQQGNVFSCSVMHEALHNHYTQKSLSLSPGK chain 2: EIAMTQSPATLSVSPGERATLSCRASQSVSSNLAWYQQKPGQAPRLLIYGASTRATGLPARFSGSGSGTEFTLTISSLQSEDFAVYYCQQYNNFWTFGQGTKVEIKRTVAAPSVFIFPPSDEQLKSGTASVVCLLNNFYPREAKVQWKVDNALQSGNSQESVTEQDSKDSTYSLSSTLTLSKADYEKHKVYACEVTHQGLSSPVTKSFNRGEC chain 3: EVQLVESGGGLIQPGGSLRLSCAASGFTFNTYAMNWVRQAPGKGLEWVGRIRSKYNNYATYYADSVKDRFTISRDDSKSTLYLQMNNLRAEDTAVYYCVRHGNFGNSYVSWFAYWGQGTLVTVSSGKPGSGKPGSGKPGSGKPGSQAVVTQEPSLTVSPGGTVTLTCRSSTGAVTTSNYANWVQQKPGQAPRGLIGGTNKRAPGTPARFSGSLLGDKAALTLSGAQPEDEAEYYCALWYSNLWVFGGGTKVTVL[human IgG1 Fc with C220S L234A L235A N297G T366W (EU numbers) cut from this listing] | 0.00498 |
| BTE-0050 (bispecific antibody) chain 1: QVQLVESGGGVVQPGGSLRLSCAASGFTFSSYGMHWVRQAPGKGLEWVAVIWYDGRNKYYADSVKGRFTISRDNSKNTLYLQMNSLRAEDTAVYYCTRDHSGSGSYYIDYWGQGTLVTVSSASTKGPSVFPLAPSSKSTSGGTAALGCLVKDYFPEPVTVSWNSGALTSGVHTFPAVLQSSGLYSLSSVVTVPSSSLGTQTYICNVNHKPSNTKVDKKVEPKSCDKTHTCPPCPAPEAAGGPSVFLFPPKPKDTLMISRTPEVTCVVVDVSHEDPEVKFNWYVDGVEVHNAKTKPREEQYGSTYRVVSVLTVLHQDWLNGKEYKCKVSNKALPAPIEKTISKAKGQPREPQVYTLPPSRDELTKNQVSLSCAVKGFYPSDIAVEWESNGQPENNYKTTPPVLDSDGSFFLVSKLTVDKSRWQQGNVFSCSVMHEALHNHYTQKSLSLSPGK chain 2: EIAMTQSPATLSVSPGERATLSCRASQSVSSNLAWYQQKPGQAPRLLIYGASTRATGLPARFSGSGSGTEFTLTISSLQSEDFAVYYCQQYNNFWTFGQGTKVEIKRTVAAPSVFIFPPSDEQLKSGTASVVCLLNNFYPREAKVQWKVDNALQSGNSQESVTEQDSKDSTYSLSSTLTLSKADYEKHKVYACEVTHQGLSSPVTKSFNRGEC chain 3: EVQLVESGGGLIQPGGSLRLSCAASGFTFNTYAMNWVRQAPGKGLEWVSRIRSKYNNYATYYADSVKDRFTISRDDSKSTLYLQMNNLRAEDTAVYYCVRHGNFGNSYVSWFAYWGQGTLVTVSSGKPGSGKPGSGKPGSGKPGSQAVVTQEPSLTVSPGGTVTLTCRSSTGAVTTSNYANWVQQKPGQAPRGLIGGTNKRAPGTPARFSGSLLGDKAALTLSGAQPEDEAEYYCALWYSNLWVFGGGTKVTVL[human IgG1 Fc with C220S L234A L235A N297G T366W (EU numbers) cut from this listing] | 0.00999 |
| BTE-0005 (bispecific antibody) chain 1: QVQLVESGGGVVQPGGSLRLSCAASGFTFSSYGMHWVRQAPGKGLEWVAVIWYDGRNKYYADSVKGRFTISRDNSKNTLYLQMNSLRAEDTAVYYCTRDHSGSGSYYIDYWGQGTLVTVSSASTKGPSVFPLAPSSKSTSGGTAALGCLVKDYFPEPVTVSWNSGALTSGVHTFPAVLQSSGLYSLSSVVTVPSSSLGTQTYICNVNHKPSNTKVDKKVEPKSCDKTHTCPPCPAPEAAGGPSVFLFPPKPKDTLMISRTPEVTCVVVDVSHEDPEVKFNWYVDGVEVHNAKTKPREEQYGSTYRVVSVLTVLHQDWLNGKEYKCKVSNKALPAPIEKTISKAKGQPREPQVYTLPPSRDELTKNQVSLSCAVKGFYPSDIAVEWESNGQPENNYKTTPPVLDSDGSFFLVSKLTVDKSRWQQGNVFSCSVMHEALHNHYTQKSLSLSPGK chain 2: EIAMTQSPATLSVSPGERATLSCRASQSVSSNLAWYQQKPGQAPRLLIYGASTRATGLPARFSGSGSGTEFTLTISSLQSEDFAVYYCQQYNNFWTFGQGTKVEIKRTVAAPSVFIFPPSDEQLKSGTASVVCLLNNFYPREAKVQWKVDNALQSGNSQESVTEQDSKDSTYSLSSTLTLSKADYEKHKVYACEVTHQGLSSPVTKSFNRGEC chain 3: EVQLVESGGGLIQPGGSLRLSCAASGFTFSGSAMNWVRQAPGKGLEWVARIRSKYNNYATYYADSVKDRFTISRDDSKSTLYLQMNNLRAEDTAVYYCVRHGNFGNSYVSWFAYWGQGTLVTVSSGKPGSGKPGSGKPGSGKPGSQAVVTQEPSLTVSPGGTVTLTCRSSTGAVTTSNYANWVQQKPGQAPRGLIGGTNKRAPGTPARFSGSLLGDKAALTLSGAQPEDEAEYYCALWYSNLWVFGGGTKVTVL[human IgG1 Fc with C220S L234A L235A N297G T366W (EU numbers) cut from this listing] | 0.0387 |
